Measured values published in the supplement of paper PMC7125110.
± gives the standard error. This sample is rich in variants without activity.

B1: glmS ribozyme (parent)
chain: AUAAAAGCGCCAGAACUACAGAAAUGUAGUUGACGAGGAGGAGGUUUAUCGAAUUUUCGGCGGAUGCCUCCAAA

How the values were obtained:
Conditions in all cases: with glucosamine-6-phosphate
glucosamine-6-phosphate [1] = variants of: B1; assay: self-cleavage kobs at 40 uM GlcN6P; higher = faster cleavage; RNA array
Outline: (§1)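 Sequenced MiSeq chips were the platform: E. coli RNA polymerase transcribed barcoded ribozyme variants on them in situ, and a hybridised Cy3 probe tracked these at 37 °C. After glucosamine-6-phosphate (40 μM to 10 mM) in HEPES/KCl/Mg(OAc)2 buffer was flowed in, tiles were imaged over ~14 h. Signals normalised to baseline and to non-cleaving reference variants were reduced to per-tile medians and fit to one- or two-exponential decays to obtain kobs. kcat and KM were derived through weighted Michaelis–Menten fits across concentrations.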

glucosamine-6-phosphate [2] = variants of: B1; assay: self-cleavage kobs at 160 uM GlcN6P; higher = faster cleavage; RNA array
Outline: as §1

glucosamine-6-phosphate [3] = variants of: B1; assay: self-cleavage kobs at 2500 uM GlcN6P; higher = faster cleavage; RNA array
Outline: as §1

glucosamine-6-phosphate [4] = variants of: B1; assay: self-cleavage kobs at 10000 uM GlcN6P; higher = faster cleavage; RNA array
Outline: as §1

glucosamine-6-phosphate [5] = variants of: B1; assay: self-cleavage kobs at 640 uM GlcN6P; higher = faster cleavage; RNA array
Outline: as §1

With AUAAAAGCGCCAGAACUACAGAAAUGUAGUUAACGAGCAGGAGGUUUAUCGAAUUUUCGGCGGAUGCCUCCAAA [G32A G38C] the “self-cleavage kobs at 40 uM GlcN6P” value (glucosamine-6-phosphate [1]) was under 1e-05 s⁻¹, the “self-cleavage kobs at 160 uM GlcN6P” value (glucosamine-6-phosphate [2]) was under 1e-05 s⁻¹ and the “self-cleavage kobs at 2500 uM GlcN6P” value (glucosamine-6-phosphate [3]) was under 1e-05 s⁻¹. The “self-cleavage kobs at 10000 uM GlcN6P” value (glucosamine-6-phosphate [4]) was under 1e-05 s⁻¹.

With AUAAAAGCGCCAGAACUACAGAAAUGUAGUUAACGAGGAGGAGGUUUCUCGAAUUUUCGGCGGAUGACUCCAAA [G32A A48C C67A] the “self-cleavage kobs at 40 uM GlcN6P” value (glucosamine-6-phosphate [1]) was under 1e-05 s⁻¹ and the “self-cleavage kobs at 10000 uM GlcN6P” value (glucosamine-6-phosphate [4]) was under 1e-05 s⁻¹.

In the case of AUAAAAGCGCCAGAACUACAGAAAUGUAGUUAACGAAGAGGAGGUUUAUCGAAUUUUCGGCGGAUGCCUCAAAA [G32A G37A C71A], the “self-cleavage kobs at 40 uM GlcN6P” value (glucosamine-6-phosphate [1]) is reported as under 1e-05 s⁻¹.

For AUAAAAGCGCCAGAACUACAGAAAUGUAGUUAACGAGGAGCAGGUUUAUUGAAUUUUCGGCGGAUGCCUCCAAA [G32A G41C C50U], the “self-cleavage kobs at 40 uM GlcN6P” value (glucosamine-6-phosphate [1]) was under 1e-05 s⁻¹ and the “self-cleavage kobs at 2500 uM GlcN6P” value (glucosamine-6-phosphate [3]) was under 1e-05 s⁻¹.

In the case of AUAAAAGCGCCAGAACUACAGAAAUGUAGUUCACGAGGGGGAGGUUUACCUUAUUUUCGGCGGAUGCCUCUAAA [G32C A39G U49C G51U A52U C71U], the “self-cleavage kobs at 40 uM GlcN6P” value (glucosamine-6-phosphate [1]) is reported as under 1e-05 s⁻¹, the “self-cleavage kobs at 640 uM GlcN6P” value (glucosamine-6-phosphate [5]) is reported as under 1e-05 s⁻¹ and the “self-cleavage kobs at 2500 uM GlcN6P” value (glucosamine-6-phosphate [3]) is reported as under 1e-05 s⁻¹. The “self-cleavage kobs at 10000 uM GlcN6P” value (glucosamine-6-phosphate [4]) was under 1e-05 s⁻¹.

AUAAAAGCGCCAGAACUACAGAAAUGUAGUUAACGAGGAGGAGGAUUAUCGAAUUUUCGGCGGAUGCCUCCAAA [G32A U45A] was tested, and the “self-cleavage kobs at 40 uM GlcN6P” value (glucosamine-6-phosphate [1]) was 9.16e-05 ± 1.5e-05 s⁻¹, the “self-cleavage kobs at 640 uM GlcN6P” value (glucosamine-6-phosphate [5]) was 0.00117 ± 0.00024 s⁻¹ and the “self-cleavage kobs at 160 uM GlcN6P” value (glucosamine-6-phosphate [2]) was 0.000267 ± 6.7e-05 s⁻¹. For the same variant, the “self-cleavage kobs at 2500 uM GlcN6P” value (glucosamine-6-phosphate [3]) was 0.003 ± 0.001 s⁻¹ and the “self-cleavage kobs at 10000 uM GlcN6P” value (glucosamine-6-phosphate [4]) was 0.00438 ± 0.00057 s⁻¹.

With AUAAAAGCGCCAGAACUACAGAAAUGUAGUUAACGAGGAGGAUGUUUAUCGAAUUUUCGGCGGAUGUCUCCAAA [G32A G43U C67U] the “self-cleavage kobs at 40 uM GlcN6P” value (glucosamine-6-phosphate [1]) was under 1e-05 s⁻¹.

For AUAAAAGCGCCAGAACUACAGAAAUGUAGUUAACGAGGAGGAGGUUUACCGAAUUUUCGGCGGAUGCCUCCAAA [G32A U49C], the “self-cleavage kobs at 40 uM GlcN6P” value (glucosamine-6-phosphate [1]) was under 1e-05 s⁻¹ and the “self-cleavage kobs at 160 uM GlcN6P” value (glucosamine-6-phosphate [2]) was under 1e-05 s⁻¹.

AUAAAAGCGCCAGAACUACAGAAAUGUAGUUAACGAGGAGGAGGUUUAGCGAAUUUUCGGCGGAUGCCUCCAAA [G32A U49G] was tested, and the “self-cleavage kobs at 40 uM GlcN6P” value (glucosamine-6-phosphate [1]) was under 1e-05 s⁻¹, the “self-cleavage kobs at 640 uM GlcN6P” value (glucosamine-6-phosphate [5]) was 2.83e-05 ± 1.2e-05 s⁻¹ and the “self-cleavage kobs at 2500 uM GlcN6P” value (glucosamine-6-phosphate [3]) was 4.58e-05 ± 1.1e-05 s⁻¹. The “self-cleavage kobs at 10000 uM GlcN6P” value (glucosamine-6-phosphate [4]) was 5.56e-05 ± 8.3e-06 s⁻¹.

With AUAAAAGCGCCAGAACUACAGAAAUGUAGUUAACGAGGAGGAGGUUUAUUGAAUUUUCGGGGGAUGCCGCCAAA [G32A C50U C61G U69G] the “self-cleavage kobs at 40 uM GlcN6P” value (glucosamine-6-phosphate [1]) was under 1e-05 s⁻¹.

AUAAAAGCGCCAGAACUACAGAAAUGUAGUUAACGAGGAGGAGGUUUAUCGAAUUUUCGGGGGAUGCCUCCAAA [G32A C61G] was tested, and the “self-cleavage kobs at 40 uM GlcN6P” value (glucosamine-6-phosphate [1]) was under 1e-05 s⁻¹.

AUAAAAGCGCCAGAACUACAGAAAUGUAGUUAACGAGGAGGACGUUUAUCGAAUUUUCGGCGGAUGCCUCCAAA [G32A G43C] was tested, and the “self-cleavage kobs at 40 uM GlcN6P” value (glucosamine-6-phosphate [1]) was under 1e-05 s⁻¹.

With AUAAAAGCGCCAGAACUACAGAAAUGUAGUUAACGAGGAGGAGGUUUAUCGAAUUUUCGGCGGCUGCCUUCAAA [G32A A64C C70U] the “self-cleavage kobs at 40 uM GlcN6P” value (glucosamine-6-phosphate [1]) was under 1e-05 s⁻¹.

For AUAAAAGCGCCAGAACUACAGAAAUGUAGUUAACGAGGAGGAGGUUUUUCGAAUUUUCGGCGGAUGCCUCCAAA [G32A A48U], the “self-cleavage kobs at 40 uM GlcN6P” value (glucosamine-6-phosphate [1]) was under 1e-05 s⁻¹ and the “self-cleavage kobs at 160 uM GlcN6P” value (glucosamine-6-phosphate [2]) was under 1e-05 s⁻¹.

With AUAAAAGCGCCAGAACUACAGAAAUGUAGUUAACGAGGAGGAGGUUGAUCGAAUUUUCGGUGGAUGCCUCCAAA [G32A U47G C61U] the “self-cleavage kobs at 40 uM GlcN6P” value (glucosamine-6-phosphate [1]) was under 1e-05 s⁻¹.

In the case of AUAAAAGCGCCAGAACUACAGAAAUGUAGUGGACGAGGAGGAGGUUUAUCGAAUUUUCUGCGGAUGCCUCCAAA [U31G G59U], the “self-cleavage kobs at 40 uM GlcN6P” value (glucosamine-6-phosphate [1]) is reported as under 1e-05 s⁻¹ and the “self-cleavage kobs at 160 uM GlcN6P” value (glucosamine-6-phosphate [2]) is reported as under 1e-05 s⁻¹.

For AUAAAAGCGCCAGAACUACAGAAAUGUAGUGGACGAGGAGGAGGUUUAUCGAAUUUUCGCCGGAUGCCUCCAAA [U31G G60C], the “self-cleavage kobs at 40 uM GlcN6P” value (glucosamine-6-phosphate [1]) was under 1e-05 s⁻¹, the “self-cleavage kobs at 640 uM GlcN6P” value (glucosamine-6-phosphate [5]) was under 1e-05 s⁻¹ and the “self-cleavage kobs at 2500 uM GlcN6P” value (glucosamine-6-phosphate [3]) was under 1e-05 s⁻¹. For the same variant, the “self-cleavage kobs at 10000 uM GlcN6P” value (glucosamine-6-phosphate [4]) was under 1e-05 s⁻¹.

In the case of AUAAAAGCGCCAGAACUACAGAAAUGUAGUUAACGAGGAGGAGGUUUUUCGGAUUUUCGGCGGAUGCCUCCAAA [G32A A48U A52G], the “self-cleavage kobs at 40 uM GlcN6P” value (glucosamine-6-phosphate [1]) is reported as under 1e-05 s⁻¹.
